Data published in the RNAGym collection of RNA variant scans (doi:10.1101/gad.245936.114).
Variants at the background level are over-represented here.

B1: tRNA (parent)
chain: CUCUCGGUAGCCAAGUUGGUUUAAGGCGCAAGACUUUAAUUUAUCACUACGAAAUCUUGAGAUCGGGCGUUCGACUCGCCCCCGGGAGAUUUUUUCCUCGAGCAA

Variants of: B1
Test: nonsense suppression (GFP-seq) (ratio to wild type); higher = more function; SUP4oc tRNA, yeast GFP reporter sort-seq
How it was run: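 To measure nonsense suppression, tRNA variants from a library carrying ~3% random mutations were integrated into the yeast genome alongside RFP and a GFP ochre reporter under galactose control. Growth took place in raffinose/galactose medium supplemented with 80 mg/L adenine, followed by sorting into GFP/RFP bins and Illumina sequencing of each bin (phred ≥30). For each variant with ≥100 reads and ≥30 cells, the bin median GFP/RFP values were weighted by its estimated cell share per bin and referenced to the unmutated parent tRNA.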

Variant	nonsense suppression
G61A G67A C79G	≤ 0.026
G61U C81A	≤ 0.026
A60C G73A	≤ 0.026
A60C G73C	0.0519
G61U G65U	≤ 0.026
G59U C68U	≤ 0.026
G61A U70A A87U	≤ 0.026
G61A G84A	≤ 0.026
G59U G67C A74U	≤ 0.026
A60U G67A U71C C82A G86A	≤ 0.026
G61C C64U C68G G84A	≤ 0.026
G61C U76C C81A	≤ 0.026
A62G G67A G88U	≤ 0.026
A60U C72G	≤ 0.026
A60U C72A	≤ 0.026
G59U U70A C81U G88U	≤ 0.026
G61U G78U	0.165
A62C G73U	≤ 0.026
A62G G86U A89G	≤ 0.026
G59U G66A C75A	≤ 0.026
A62C C64U G84C	≤ 0.026
G61A G73C	≤ 0.026
G59C A60C U71G G78A	≤ 0.026
U63A U70C G88U	≤ 0.026

Variant	nonsense suppression
A60U G78C G85A	1.16
G59U C83G	≤ 0.026
A60C G84C G88A	≤ 0.026
G61U A62U	0.0397
A62C U63C G88A	≤ 0.026
U63G G65A G66U	≤ 0.026
A60C G61C G73C	≤ 0.026
A60C G65A G69U	≤ 0.026
A60C G61A G69A G84A	≤ 0.026
G61U U63C A74C	≤ 0.026
U63G G73U A74U G78C	≤ 0.026
G61U A62U C72A	≤ 0.026
A62G C82G	≤ 0.026
A62C G65C	≤ 0.026
G61C C68U C79G	≤ 0.026
A62U U71C A74C U76C	≤ 0.026
U63C U76A G88A	≤ 0.026
G61U A74C C82A G88C	≤ 0.026
A60C G78A	≤ 0.026
A62U G67C C79A	≤ 0.026
G61A G85U	0.429
G61C C80U A87U	≤ 0.026
G61A G69C C72G C77A	≤ 0.026
G61U U70C U71C G88U	≤ 0.026

Variant	nonsense suppression
C64U C82A	≤ 0.026
G61A G66A G73A	≤ 0.026
G59C C79A	≤ 0.026
G59C A87U	≤ 0.026
C64A U76A	≤ 0.026
G61C G88C	≤ 0.026
G61A U76G	0.0268
A62G G65A G67A C80U C82G	≤ 0.026
A60G A62U U63C C64G G67C	≤ 0.026
U63G U70A	≤ 0.026
G61A C72A	0.0325
G59U G73C	≤ 0.026
U63C G85A	1.06
A60G C64G G69A G73U C82A	≤ 0.026
G59C C82A	≤ 0.026
G59C C82U	≤ 0.026
G61C C77U	0.0267
G61C C77G	0.0296
G61C C77A	≤ 0.026
G61A C68U G69A G73A	≤ 0.026
A62C C64G	≤ 0.026
C64A A89G	≤ 0.026
C64A A89C	≤ 0.026
G59C G61U G65A A87C	≤ 0.026

Variant	nonsense suppression
A60U C83G	≤ 0.026
G61C U71C	0.061
A62C U63C	≤ 0.026
U63A G73A A74C A87U	≤ 0.026
C64U G67A G85C	≤ 0.026
G59C U63A G66A C68U C72A	≤ 0.026
C64G C72G G73U	≤ 0.026
G61A G88A	≤ 0.026
G61C C64G	≤ 0.026
A60G U71A	≤ 0.026
G59C C68A G88U A89C	≤ 0.026
U63A C79G	≤ 0.026
U63A C79A	≤ 0.026
G61U C64U	≤ 0.026
G61U C64G	≤ 0.026
A62C	≤ 0.026
A62G	≤ 0.026
A62U	0.193
G61C C82A G85A	≤ 0.026
A62C C64A G85A G88A	≤ 0.026
G59U C79A	≤ 0.026
A60U G67A	0.0457
C64U G78U C80U	≤ 0.026
U63A C77G	≤ 0.026

Variant	nonsense suppression
A62C C77A G86U	≤ 0.026
A62U C75A G88U	≤ 0.026
G61C G67U G73U	≤ 0.026
A60C C82U A89G	≤ 0.026
G61C C75A	1.06
G61C C75G	1.21
G59C C64A G88A	≤ 0.026
C64A A87U	≤ 0.026
A62C C77A C80U	≤ 0.026
G61C A74U C83G	≤ 0.026
C64A G65U	≤ 0.026
C64G G67C G85C	≤ 0.026
A60C C64U G66C G67C G69U	≤ 0.026
C64G C82A	≤ 0.026
U63C G73U A89G	≤ 0.026
A62C U76C	≤ 0.026
A62G A74U C77G	≤ 0.026
U63A G67A	≤ 0.026
G61C C80U	0.731
G61U U70G	≤ 0.026
G61U U71A G86A	≤ 0.026
G61A C80U	0.232
G59C G85A	0.114
U63G C79A	≤ 0.026

Variant	nonsense suppression
C64A G65U G85C	≤ 0.026
U63G G86C	≤ 0.026
A62G U76G	≤ 0.026
G65A A87U	≤ 0.026
G65A A87C	≤ 0.026
G65A A87G	≤ 0.026
A60G C79G G86A	≤ 0.026
A62U C64A	≤ 0.026
A62U C64G	≤ 0.026
C64G G67C C81G	≤ 0.026
G59C G61C	≤ 0.026
G61U A89C	≤ 0.026
G61C G67U	≤ 0.026
G61A U70A A89G	≤ 0.026
A62G U63C	≤ 0.026
U63G G78C	≤ 0.026
C64A G69U	≤ 0.026
G61A G69C C72G C77A A89C	≤ 0.026
C64A A74G	≤ 0.026
G61A C81A	≤ 0.026
U63A G69U	≤ 0.026
U63C G78C G86A	≤ 0.026
G59U C80A	≤ 0.026
G61U U63C	0.808

Variant	nonsense suppression
G61U U63G	0.232
G59C G69U	≤ 0.026
A60U U70A	≤ 0.026
C64G U70C G84U	≤ 0.026
U63C G78U	0.0499
A62G G86U	≤ 0.026
G61A A62U G84U	≤ 0.026
U63G U70C C75U	0.099
C64U G88C	≤ 0.026
A60C G86A	≤ 0.026
U63C G86U	≤ 0.026
G59U U70A C81U	≤ 0.026
U63C G66A A87C	≤ 0.026
G59U G84C	≤ 0.026
C64A C72U A87G	≤ 0.026
U63A C64A	≤ 0.026
A62G G84C	≤ 0.026
G65A G73C	≤ 0.026
A62U U71C C77G	≤ 0.026
G61C G69A G84A	≤ 0.026
A62U G73U A74U	≤ 0.026
G61A A62C G67C	≤ 0.026
C64U G73A A89G	≤ 0.026
